Assay results published in the supplement of paper PMC9446081.
Hit rate of the full screen: of about 39,000 compounds, about 220 (0.56%) showed activity. Some of the results follow.

The compounds below were run on Escherichia coli K-12 BW25113 (assay: relative growth (OD600 normalised to plate interquartile mean) (fraction); higher = less growth inhibition, active = 0.2 or less). Details: 50 µM; LB; incubation time: overnight (16-24 h).
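Also: static incubation at 37 °C against the wild-type strain, values averaged over two biological replicates.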

| Compound | relative growth |
| --- | --- |
| C[C@@H]1CCCCO[C@H](CN(C)C(=O)Cc2ccccc2)[C@H](C)CN([C@H](C)CO)C(=O)c2cc(NS(=O)(=O)c3ccc(F)cc3)ccc2O1 | inactive: 1.04 |
| Cc1noc(C)c1NC(=O)N(C)C[C@@H]1Oc2ccc(NS(=O)(=O)c3cn(C)cn3)cc2CC(=O)N([C@@H](C)CO)C[C@H]1C | inactive: 1.01 |
| C[C@@H]1CN([C@@H](C)CO)C(=O)c2cccc(NC(=O)Nc3ccc(C(F)(F)F)cc3)c2O[C@@H]1CN(C)C(=O)Nc1ccc(C(F)(F)F)cc1 | inactive: 0.989 |
| C[C@@H]1CN([C@@H](C)CO)C(=O)CCCn2nncc2CO[C@H]1CN(C)C(=O)Nc1ccc(N2CCN(C)CC2)cc1 | inactive: 0.998 |
| C[C@@H]1CN([C@H](C)CO)C(=O)c2cc(NS(C)(=O)=O)ccc2O[C@@H](C)CCCCO[C@H]1CN(C)Cc1ccc(C(F)(F)F)cc1 | inactive: 0.969 |
| COC1C=COC2(C)Oc3c(C)c(O)c4c(O)c(c(C=NN5CCN(C6CCCC6)CC5)c(O)c4c3C2=O)NC(=O)C(C)=CC=CC(C)C(O)C(C)C(O)C(C)C(OC(C)=O)C1C (stereo not drawn) | active: 0.0719 |
| COc1ccc(S(=O)(=O)Nc2ccc3c(c2)C(=O)N([C@H](C)CO)C[C@H](C)[C@H](CN(C)C(=O)Nc2c(C)noc2C)O3)cc1 | inactive: 1 |
| Cc1ccc(-c2ccc3c(c2)O[C@H](CN(C)C(=O)CN(C)C)[C@@H](C)CN([C@@H](C)CO)S3(=O)=O)cc1 | inactive: 0.988 |
| COCC(=O)N[C@H]1C=C[C@@H](CC(=O)N2CCCCC2)O[C@H]1CO | inactive: 0.988 |
| C=CC[C@@H](CC(=O)NCCO)C(=O)N[C@@H](COC(=O)[C@@H](CC=C)CC(=O)OC(C)(C)C)Cc1ccccc1 | inactive: 1.01 |
| O=c1cc(-c2ccc(O)cc2)oc2cc(O)cc(O)c12 | inactive: 1.06 |
| COc1ccc(NC(=O)Nc2ccc3c(c2)C(=O)N([C@H](C)CO)C[C@@H](C)[C@H](CN(C)S(=O)(=O)c2ccc(OC)cc2)OCCCC[C@H](C)O3)cc1 | inactive: 1.01 |
| C[C@@H]1CN([C@@H](C)CO)C(=O)Cc2cc(NC(=O)C3CC3)ccc2O[C@H]1CN(C)C(=O)Nc1ccc2c(c1)OCO2 | inactive: 1.03 |
| C[C@H](CO)N1C[C@H](C)[C@H](CN(C)S(=O)(=O)c2cn(C)cn2)Oc2ccc(NC(=O)Nc3ccc4c(c3)OCO4)cc2C1=O | inactive: 1.01 |
| O=C(C[C@@H]1CC[C@@H]2[C@H](COC[C@H](O)CN2C(=O)Nc2ccc3c(c2)OCO3)O1)N1CCN(c2ccccc2)CC1 | inactive: 1.01 |
| CN1CCN(C(=O)C[C@@H]2CC[C@@H]3[C@H](COC[C@@H](O)CN3S(=O)(=O)c3cccc(F)c3)O2)CC1 | inactive: 0.981 |
| CC(=O)C1CCC2C3CC=C4CC(O)CCC4(C)C3CCC12C (stereo not drawn) | inactive: 1.1 |
| COc1ccc(CN(C)C[C@H]2Oc3c(NS(=O)(=O)c4cn(C)cn4)cccc3C(=O)N([C@H](C)CO)C[C@@H]2C)cc1 | inactive: 1 |
| Cc1noc(C)c1NC(=O)Nc1cccc2c1O[C@@H](CN(C)C(=O)NC(C)C)[C@@H](C)CN([C@@H](C)CO)C2=O | inactive: 1 |

| Compound | relative growth |
| --- | --- |
| CC(=O)NCC(=O)N1CCOC[C@]2(CC[C@@H](Cn3cccn3)O2)C1 | inactive: 1.01 |
| C[C@H]1CN([C@@H](C)CO)C(=O)c2cccc(NC(=O)Nc3ccc4c(c3)OCO4)c2O[C@H]1CN(C)C(=O)Nc1cccc2ccccc12 | inactive: 0.943 |
| C[C@@H]1CN([C@@H](C)CO)C(=O)c2cc(NC(=O)Nc3cccc4ccccc34)ccc2O[C@@H]1CN(C)C(=O)Nc1ccc(F)cc1 | inactive: 1.01 |
| CC(C)C(=O)NNC(=O)c1ccccc1O | inactive: 1.02 |
| C[C@H](CO)N1C[C@H](C)[C@@H](CN(C)Cc2ccncc2)Oc2c(NC(=O)c3ccncc3)cccc2C1=O | inactive: 1 |
| CC1=NN2NC(C(F)(F)F)=NN2C(=O)C1 | inactive: 1 |
| CCCCCCCCC#CCCCCCCCC(=O)O | inactive: 1.06 |
| COc1ccc(S(=O)(=O)Nc2ccc3c(c2)C(=O)N([C@@H](C)CO)C[C@H](C)[C@@H](CN(C)C(=O)Nc2c(C)noc2C)OCCCC[C@H](C)O3)cc1 | inactive: 0.995 |
| C=CC[C@@H](CC(=O)NCCO)C(=O)NCCOC(=O)[C@H](CC=C)NC(=O)OCC1c2ccccc2-c2ccccc21 | inactive: 0.987 |
| C[C@H]1CN([C@@H](C)CO)C(=O)Cc2cc(NS(=O)(=O)c3ccccc3)ccc2O[C@@H]1CN(C)S(=O)(=O)c1cccs1 | inactive: 1 |
| O=C(N[C@H]1CC[C@@H](CC(=O)N2CCOCC2)O[C@@H]1CO)c1ccccn1 | inactive: 1.02 |
| C[C@@H]1CN([C@@H](C)CO)C(=O)c2cc(NC(=O)Nc3ccc(C(F)(F)F)cc3)ccc2O[C@H]1CN(C)C(=O)NC1CCCCC1 | inactive: 1.02 |
| C[C@@H]1CN([C@H](C)CO)C(=O)c2cc(NC(=O)Nc3ccc(F)cc3)ccc2O[C@@H](C)CCCCO[C@@H]1CN(C)C(=O)c1ccccc1 | inactive: 1.02 |
| O=C(Nc1cc(C(=O)Nc2ccc(S(=O)(=O)O)cc2S(=O)(=O)O)cc(C(=O)Nc2ccc(S(=O)(=O)O)cc2S(=O)(=O)O)c1)Nc1cc(C(=O)Nc2ccc(S(=O)(=O)O)cc2S(=O)(=O)O)cc(C(=O)Nc2ccc(S(=O)(=O)O)cc2S(=O)(=O)O)c1 | inactive: 0.948 |
| C[C@H]1CN([C@@H](C)CO)C(=O)c2cccc(NC(=O)Nc3ccc(F)cc3)c2O[C@@H]1CN(C)Cc1ccc(Oc2ccccc2)cc1 | inactive: 1.02 |
| CCOC(=O)[C@H](Cc1ccccc1)NC(=O)c1cc(Cl)c(OCCN2CCN(C)CC2)c(Cl)c1O | inactive: 1.03 |
| C[C@@H]1CN([C@@H](C)CO)C(=O)c2cc(C#Cc3ccccc3F)cnc2O[C@H]1CN(C)C(=O)Cc1cccnc1 | inactive: 1 |
| COc1cccc(NC(=O)N2C[C@@H](O)COC[C@H]3O[C@H](CC(=O)NCc4ccccc4F)CC[C@@H]32)c1 | inactive: 0.996 |
| C[C@@H]1CN([C@@H](C)CO)C(=O)c2cccc(NS(=O)(=O)c3cn(C)cn3)c2O[C@@H]1CN(C)S(C)(=O)=O | inactive: 1.02 |
